In the supplement of paper PMC10126150 one finds switch fluorescence ratio data, which are given here for 120 sequences.

Sequences with one replicate were seen in a single cluster, so their values are uncertain.

For the series, the system named is ATP. Kind of series: switch fluorescence ratio, 500 uM ATP over buffer (Cy3 cluster intensity, sum of 5 cycles each) (fold (ratio)); higher = stronger signal-on switching upon ATP binding; sequences stand for … in TCGTCGGCAGCGTCAGATGTGTATAAGAGACAGTTTTTTTTTTTTTTTTTTTTTTTTT…TC. To be noted: aptamer strand: ATP DNA aptamer (quencher-CACCTGGGGGAGTATTGCGGAGGAAGG + anchor), 100 nM annealed; ATP concentration: 500 uM; one replicate. The procedure, abridged:
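Clusters with intensities outside 100-1000 RFU were excluded. The remaining Cy3-labelled switching-strand clusters on a modified Illumina MiSeq flow-cell had been annealed to 100 nM quencher-labelled ATP aptamer and imaged in selection buffer, then after 15 min with 500 uM ATP at 22 °C, for five cycles separated by NaOH stripping and re-annealing. The fluorescence ratio, averaged per switch-domain sequence, is each cluster's summed target-cycle Cy3 intensity over its summed buffer-cycle Cy3 intensity.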
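Further: ATP exposure 15 min at 22 °C before imaging.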

For CGAGGTGCCC, the switch fluorescence ratio was determined as 1.03.
Consider CAGGTGTTTC, for which the switch fluorescence ratio was 1.58.
For ACTTATTCCC, the switch fluorescence ratio amounted to 1.38.
Take GACGATGTAT: the switch fluorescence ratio came out at 1.09.
With TGCCTGCGTT, the switch fluorescence ratio turned out to be 1.03.
With TTGATACTGT, the switch fluorescence ratio was determined as 1.04.
The value for CTGAACCGGG was 1.04; that for CCACTTCATT was 1.15; that for GCTGAGCGGG was 0.961.
The value for CTAACGTTTC was 1.14.
On to GCCGGATGGG, for which the switch fluorescence ratio amounted to 1.1.
GCGACGTAAG: the switch fluorescence ratio amounted to 1.01.
Consider CTCAATCTGC, for which the switch fluorescence ratio came to 1.1.
As for GATTCGGACG, the switch fluorescence ratio was determined as 0.985.
Turning to CTGAAAGTTG, the switch fluorescence ratio is 0.982.
Regarding ACGGGCCGTA, the switch fluorescence ratio amounted to 0.921.
In the case of GGTAGTTTAG, the switch fluorescence ratio is 0.989.
On to ATATTAAGCA, for which the switch fluorescence ratio was 0.961.
Turning to TAAACGCTAT, the switch fluorescence ratio amounted to 1.16.
As for GATCGTTATC, the switch fluorescence ratio stood at 1.01.
Turning to TATAAATTCG, the switch fluorescence ratio worked out at 1.
In the case of ACTTTTATCA, the switch fluorescence ratio was determined as 0.955.
The value for TATTCGTCTC was 0.972; that for TAAAGCGCAA was 2.43.
As for TCTCAAAGAC, the switch fluorescence ratio worked out at 1.54.
On to GCGATTTTCC, for which the switch fluorescence ratio amounted to 1.13.
On to CTACTACTTG, for which the switch fluorescence ratio stood at 1.04.
The figure for TACGATAGTA is 1.02; for ATACGAAAGA it is 1.01; for TGGATCTGGA it is 0.966.
Take CCATCGTAGA: the switch fluorescence ratio turned out to be 0.981.
Consider CGGTTCGAAT, for which the switch fluorescence ratio was 1.01.
Consider CGACTCAAAG, for which the switch fluorescence ratio is 1.01.
The value for ATGGGTTCGA was 0.983.
AATGCTTGCG: the switch fluorescence ratio was determined as 1.02.
With TTATATTTT, the switch fluorescence ratio stood at 0.97.
Take GCAAAGCGGT: the switch fluorescence ratio was determined as 0.992.
ACAGCTCGTA: the switch fluorescence ratio is 1.01.
In the case of CATTCCTGGG, the switch fluorescence ratio came out at 1.01.
Take AGGAGCATGG: the switch fluorescence ratio is 0.928.
As to GAGGCAGTCA, the switch fluorescence ratio was determined as 0.997.
TTTATTCGAC: the switch fluorescence ratio was 1.03.
The value for TTCCCACGCA was 5.55; that for AAAGTTGAGC was 1.03; that for ATTATAATTT was 0.976.
Take TAGGTTGGT: the switch fluorescence ratio stood at 0.991.
Consider CCCCAAGACA, for which the switch fluorescence ratio came to 1.2.
The value for ACCAACGAGA was 1.28; that for AGTTAGACTA was 0.972; that for TAACCCACGG was 1.16.
The value for ACAATAACGC was 1.09; that for AGAGATCCTG was 1.02.
As to GCGGCTGTTC, the switch fluorescence ratio was determined as 0.996.
For the sequence TAGCACTCAG, the switch fluorescence ratio is 0.98.
With ACATCAAATG, the switch fluorescence ratio was found to be 0.944.
Take AGGCGCCTGC: the switch fluorescence ratio was determined as 0.976.
Regarding GGATTAGCGT, the switch fluorescence ratio came to 1.01.
As to ATTAGTTCTT, the switch fluorescence ratio was found to be 1.
Consider TACTAGGTCA, for which the switch fluorescence ratio is 1.
Turning to GAAAGAGTGG, the switch fluorescence ratio worked out at 0.985.
Regarding CGCGAGTTGC, the switch fluorescence ratio came out at 1.06.
In the case of ACCAATGACA, the switch fluorescence ratio was found to be 1.07.
Turning to CATGTAGGTT, the switch fluorescence ratio worked out at 1.08.
For the sequence GAGGAGGAGG, the switch fluorescence ratio is 1.02.
Consider TAGTGCGGTG, for which the switch fluorescence ratio turned out to be 0.987.
The value for ATTCCCTAGT was 1; that for CCACGCTTCG was 1.04; that for GAGGTCCCCG was 0.963.
As for CCGGCTACTT, the switch fluorescence ratio was determined as 1.05.
The value for AGTTACCGAT was 1.05; that for GTTTCCCACG was 1.08; that for AATTAAAAGC was 1.02.
With AAGTGGTT, the switch fluorescence ratio came to 1.
The value for GTTTTCCTGG was 1; that for AGTCATTCGC was 0.993; that for TCTGGTGTCA was 1.01.
Regarding GTCTGAGGGT, the switch fluorescence ratio is 0.935.
Turning to GGTCGGTACT, the switch fluorescence ratio was 0.993.
The figure for GCTAAACGTA is 1.06; for CGGGAATAAG it is 0.993.
Take GATTGGATGG: the switch fluorescence ratio was 0.97.
Consider TTGAACGTAG, for which the switch fluorescence ratio came out at 0.977.
On to AAGCGGATCT, for which the switch fluorescence ratio was 0.997.
The figure for GCCTAATCCG is 1.05.
As to TGGACATA, the switch fluorescence ratio turned out to be 1.05.
Turning to GGGCGCTTGT, the switch fluorescence ratio is 1.01.
Take GAATGATGCA: the switch fluorescence ratio was determined as 0.953.
The figure for GCAAAATGCA is 0.979; for CGCACCATGA it is 1.08; for ATCGGGGCCA it is 0.962.
Take CGGATCGTAT: the switch fluorescence ratio came to 0.976.
In the case of AAGCTAGTAC, the switch fluorescence ratio amounted to 2.94.
In the case of CCCTGGGATC, the switch fluorescence ratio was 1.06.
As to GGCGGTAGC, the switch fluorescence ratio is 0.966.
Regarding TGTTCCAGAA, the switch fluorescence ratio turned out to be 0.966.
The figure for GCCTACGTTC is 1.06; for TCTCTTTTCG it is 0.993.
The figure for CCGGAAATAG is 1.13; for TTAGGCGATT it is 1.06.
Take CTATCAGATG: the switch fluorescence ratio was determined as 1.
As for ATCATCGTCA, the switch fluorescence ratio stood at 1.01.
As to AGCGGTGCAG, the switch fluorescence ratio came to 0.978.
On to CTCCTCGGGA, for which the switch fluorescence ratio was determined as 1.05.
As to CTTCTTATGA, the switch fluorescence ratio came to 0.945.
The value for GCACGAACAC was 1.4; that for TTTAGTCAAA was 1.06; that for ATATTTGCTC was 1.01.
The figure for ATACCCCCTT is 1.52; for CGATTAAGCT it is 0.976.
Turning to TTATTGTTTC, the switch fluorescence ratio was determined as 1.06.
On to CGTTGCTGT, for which the switch fluorescence ratio was 1.03.
Take AAAGTTAGAC: the switch fluorescence ratio stood at 1.04.
The figure for AACCGTTACA is 1.18.
The value for CCTCTTTCAT was 1.14.
Turning to AAAAGGCTA, the switch fluorescence ratio is 1.02.
The figure for ATGCGGGGTA is 1.01.
Consider AATAGTCTTG, for which the switch fluorescence ratio is 0.98.
For CATGACTGTT, the switch fluorescence ratio was 1.03.
Regarding GCAAAATGCG, the switch fluorescence ratio stood at 0.989.
On to AAGGAGGAGA, for which the switch fluorescence ratio worked out at 0.994.
